Measurements taken from PubChem BioAssay AID1347417 (National Center for Advancing Translational Sciences (NCATS), 2020).
In all, about 120,000 compounds went through this assay and about 5,300 (4.4%) were called active. Inconclusive results, whose numbers are uncertain, are shown with a selection of clear calls. Calls follow the shape of the dose curve; as a rule, active = well fitted inhibition curve with a large enough effect; inconclusive = small, poorly fitted or top-dose-only effect; inactive = no such curve, though single readings can be large or run the other way. A potency beside an inconclusive call is a rough fit, not a confirmed value.

Assay: qHTS Primary assay for Inhibitors of Plasmodium falciparum Dd2 growth in vitro; also: nearly all actives have a fitted effect of over 65% in size
Details: P. falciparum Dd2 growth, SYBR Green, 72 h; series mostly up to 28.9 µM
Outline: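 Readout: SYBR Green fluorescence, 485 nm excitation, 535 nm emission, after ~16 h lysis at 37C. Before that, Dd2-infected red cells (2.5% hematocrit) grew 72 h with compound, 29 uM top final concentration.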
Potency is read from the fitted curve at half-maximal effect; tags tell the direction and shape of the fitted curve.

Question: With `COc1ccc(CC2CN(C(=O)c3cccnc3SC)CCO2)cc1` (stereo not given) as the molecule, how does the Potency read?
Answer: The Potency was “inactive”.

Question: For `CC(C)C(=O)N1CCOc2ccc(CN3CCc4ccccc4C3)cc2C1`, which Potency is on record?
Answer: Its Potency is “inactive”.

Question: Which Potency does the source give for `O=C(Cn1ccn2nc(-c3ccccc3)c(CO)c2c1=O)N1CCCc2ccccc21` here?
Answer: Its Potency is “inactive”.

Question: For `COc1ccc(CCNC(=O)c2cc3sccc3n2Cc2ccc(Cl)cc2)cc1OC`, which Potency is on record?
Answer: The Potency was inconclusive: 11.2 µM [inhibitor, single point].

Question: Which Potency does the source give for `CCOc1ccccc1CN1CCc2nc(Nc3ccc4c(c3)OCCO4)ncc2C1` here?
Answer: Its Potency is inconclusive: 11.2 µM [inhibitor, partial curve].

Question: For `CC(C)(C)CC(=O)N1C[C@@H]2C[C@H]1C(=O)Nc1ccccc1O2`, which Potency is on record?
Answer: Its Potency is “inactive”.

Question: Which Potency does the source give for `Cc1cc2nc3n(c(=O)c2n1CC(=O)Nc1cccc(Cl)c1)CCCCC3` here?
Answer: The Potency was inconclusive: 2.82 µM [inhibitor, full curve].

Question: For `Cc1ccc(/C=C/c2onc(C)c2S(=O)(=O)N2CCC(C(=O)N3CCN(c4ccccc4F)CC3)CC2)cc1`, which Potency is on record?
Answer: Its Potency is active: 6.31 µM.

Question: Which Potency does the source give for `O=C1NCCCCCCN(Cc2cccc(F)c2)[C@H]2C[C@H](C(=O)N3CCc4ccccc4C3)C[C@@H]12` here?
Answer: The Potency was active: 3.55 µM.

Question: Which Potency does the source give for `CCN1C(=O)C2(CCN(C(=O)NC3CCCCC3)CC2)c2ccccc21` here?
Answer: The Potency was inconclusive: 14.1 µM [inhibitor, single point].

Question: For `Cc1ccc(C(=O)N2CC(Oc3ccc(F)c(C)c3)C2)cc1`, which Potency is on record?
Answer: The Potency was “inactive”.

Question: With `Cc1ccc(C)c(CN2CCc3nc(N(C)Cc4cccnc4)[nH]c(=O)c3CC2)c1` as the molecule, how does the Potency read?
Answer: Its Potency is inconclusive: 1.58 µM [inhibitor, partial curve, poor fit].

Question: With `N#Cc1cc2c(nc1SCC(=O)Nc1ccc(Cl)c(C(F)(F)F)c1)C1CCN2CC1` as the molecule, how does the Potency read?
Answer: The Potency was active: 5.01 µM.

Question: Which Potency does the source give for `COc1cccc(S(=O)(=O)N2CCC3(C2)C(=O)N(C)c2ccc(OC)cc23)c1` (stereo not given) here?
Answer: Its Potency is “inactive”.

Question: Which Potency does the source give for `CCO[C@H]1CN(C(=O)c2nc3ccccc3[nH]c2=O)C[C@@H]1O` here?
Answer: The Potency was “inactive”.

Question: With `O=C(Nc1c(F)cccc1F)N1CCOc2ccc(CN3CCc4ccccc4C3)cc2C1` as the molecule, how does the Potency read?
Answer: The Potency was inconclusive: 2.82 µM [inhibitor, full curve, poor fit].

Question: Which Potency does the source give for `CCOc1ccc(NC(=O)Cn2c(=O)c(CNc3ccc(CC)cc3)cc3cc4c(cc32)OCO4)cc1` here?
Answer: The Potency was inconclusive: 17.8 µM [inhibitor, single point].

Question: Which Potency does the source give for `Cc1oc2ncn(CC(C)C)c(=O)c2c1C(=O)NC(C)c1ccccc1` (stereo not given) here?
Answer: The Potency was inconclusive: 20 µM [inhibitor, single point].

Question: Which Potency does the source give for `Cc1cc(C)c2nc(NC(=O)c3ccc(S(=O)(=O)N4CCc5ccccc54)cc3)sc2c1` here?
Answer: Its Potency is inconclusive: 10 µM [inhibitor, single point].

Question: For `CCCCC1CCCN1C(=O)c1coc(COc2cccc(F)c2F)n1` (stereo not given), which Potency is on record?
Answer: Its Potency is inconclusive: 10 µM [inhibitor, single point].

Question: With `Cc1ccc(CNc2ncnc3onc(-c4ccc(F)cc4)c23)cc1` as the molecule, how does the Potency read?
Answer: The Potency was inconclusive: 17.8 µM [inhibitor, single point].

Question: With `CC(C)CC(=O)N1CCCCCC1CN1CCC(C)CC1` (stereo not given) as the molecule, how does the Potency read?
Answer: The Potency was “inactive”.

Question: Which Potency does the source give for `COc1cccc(NCc2nnc(C(=O)N3CCC[C@@H]3C(c3ccccc3)c3ccccc3)n2-c2cccnc2)c1` here?
Answer: The Potency was inconclusive: 2 µM [inhibitor, partial curve, poor fit].

Question: With `O=C(NCc1ccccc1)NCC1CCOCC1` as the molecule, how does the Potency read?
Answer: Its Potency is “inactive”.

Question: Which Potency does the source give for `COc1cccc(N2CC(C(=O)NCC(F)F)NC2=O)c1` (stereo not given) here?
Answer: The Potency was “inactive”.

Question: Which Potency does the source give for `Cn1cc(CN2CC[C@@H](c3ccc4c(c3)OCO4)[C@H](O)C2)c2ccccc21` here?
Answer: The Potency was active: 8.91 µM.

Question: Which Potency does the source give for `CN(Cc1ccccc1C(F)(F)F)S(=O)(=O)c1cccc(C(F)(F)F)c1` here?
Answer: Its Potency is inconclusive: 14.1 µM [inhibitor, single point].

Question: For `Cn1nc(C2CCN(C(=O)[C@H]3CC(=O)NC(=O)N3)CC2)n(-c2ccccc2)c1=O`, which Potency is on record?
Answer: Its Potency is inconclusive: 3.98 µM [inhibitor, single point].

Question: For `O=C1CCN(C(=O)CN2CCCCCC2)CCCC(c2nc(-c3cccnc3)no2)CCN1` (stereo not given), which Potency is on record?
Answer: Its Potency is “inactive”.

Question: For `CO[C@@H]1COCC[C@H]1NC(=O)CCSc1ccc2c(c1)OCCO2`, which Potency is on record?
Answer: The Potency was “inactive”.

Question: Which Potency does the source give for `COc1cccc(C(=O)N2CCC(N3C[C@H](O)C[C@H]3C(=O)NCc3cccc(C)c3)CC2)c1` here?
Answer: The Potency was inconclusive: 10 µM [inhibitor, single point].

Question: Which Potency does the source give for `COc1ccccc1CNC(=O)c1cc2cn(C3CC3)cc2s1` here?
Answer: The Potency was “inactive”.

Question: With `CCc1nc(-c2c3n(c(=O)n(Cc4ccccc4C(F)(F)F)c2=O)CCCC3)no1` as the molecule, how does the Potency read?
Answer: The Potency was inconclusive: 12.6 µM [inhibitor, single point].

Question: Which Potency does the source give for `CCn1cc(CN2CCC(c3[nH]ncc3-c3ccccc3C)CC2)cn1` here?
Answer: Its Potency is inconclusive: 10 µM [inhibitor, single point].

Question: Which Potency does the source give for `CCOc1ccccc1C1NC(=O)N(CC(=O)Nc2ccc(C)c(Cl)c2)C2=C1C(=O)OC2` (stereo not given) here?
Answer: The Potency was inconclusive: 11.2 µM [inhibitor, single point].

Question: For `COc1ccc(S(=O)(=O)N2CCc3c(C(=O)NCCN(C)C)cccc32)cc1`, which Potency is on record?
Answer: Its Potency is inconclusive: 1.12 µM [inhibitor, partial curve, poor fit].

Question: For `COc1ccc2c(c1)c(CN1CCc3nn(C)c(=O)n3CC1)cn2C`, which Potency is on record?
Answer: Its Potency is inconclusive: 7.94 µM [inhibitor, partial curve, poor fit].

Question: For `COc1cccc(OC)c1C(=O)Nc1nc2c(s1)CCc1ccccc1-2`, which Potency is on record?
Answer: Its Potency is “inactive”.

Question: With `O=C([C@@H]1C[C@H](F)CN1C(=O)NCc1ccc(OC(F)(F)F)cc1)N1CCCCC1` as the molecule, how does the Potency read?
Answer: The Potency was “inactive”.

Question: For `O=C(N[C@H]1C[C@@H]2C(=O)N[C@H]3CCN(C(=O)c4cccs4)[C@@H]3C(=O)N2C1)C1CCCC1`, which Potency is on record?
Answer: The Potency was “inactive”.

Question: For `CN(C)[C@H]1C[C@@H](Cc2cc(COc3ccccc3)on2)C1(C)C`, which Potency is on record?
Answer: The Potency was “inactive”.

Question: Which Potency does the source give for `NC(=O)c1ccc(OC2CCN(S(=O)(=O)c3ccc(F)cc3)CC2)nc1` here?
Answer: The Potency was inconclusive: 17.8 µM [inhibitor, single point].

Question: For `COc1ccc(-c2nc(CC3CCN(C(=O)c4n[nH]c(=O)c5ccccc45)C3)no2)cc1` (stereo not given), which Potency is on record?
Answer: Its Potency is inconclusive: 1.78 µM [inhibitor, full curve, poor fit].

Question: Which Potency does the source give for `O=C1CC2CCCC(C1)N2C(=O)c1cccc(Br)c1` here?
Answer: Its Potency is “inactive”.

Question: For `CN(C1CCOCC1)C1CCN(C(=O)c2cccc(Cl)c2)CC1`, which Potency is on record?
Answer: Its Potency is inconclusive: 0.251 µM [inhibitor, full curve, poor fit].
